Among all 310,000 compounds or so, about 18,000 (5.8%) were called active. Inconclusive results, whose numbers are uncertain, are shown with a selection of clear calls. Calls come from the whole dose curve; as a rule, active = well fitted inhibition curve with a large enough effect; inconclusive = small, poorly fitted or top-dose-only effect, or another doubt; inactive = no such curve, though single readings can be large or run the other way. No potency is given beside an inconclusive call; the fits are too rough. Residues, ends and D or L forms follow the SMILES beside them. *: point of attachment. Boc = CC(C)(C)OC(=O)*
Assay: Primary qHTS for delayed death inhibitors of the malarial parasite plastid, 48 hour incubation
Settings: P. falciparum luciferase growth in erythrocytes; series mostly up to 28.7 µM
Outline: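 Compounds are pin-transferred into medium, infected erythrocytes (2% hematocrit, 0.1% parasitemia final) are added, and plates sit one parasite generation at 37 C in 5% CO2. Detection reagent is then added and luminescence measured.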
Potency is the fitted concentration of half-maximal effect; tags give direction and shape of the fitted curve.

Compound	Potency
Cc1ccc(C)c(N2CCN(C(=O)c3ccc4nsnc4c3)CC2)c1	inconclusive [inhibitor, single point]
O=C(Cn1c(=O)sc2ccccc21)Nc1ccc(S(=O)(=O)N2CCCC2)cc1	inconclusive [inhibitor, partial curve]
CCN(CC)c1ccc(/C=N/NC(=S)NC)c(O)c1	inconclusive [inhibitor, full curve]
COc1ccc(NC(=S)NC(=O)/C=C/c2ccco2)cc1	inactive
CCCCCCCCC(=O)N1CCN(c2cc3c(cc2F)c(=O)c(C(=O)O)cn3CC)CC1	inconclusive [inhibitor, partial curve, poor fit]
COc1cccc(C2C(C(=O)c3cccs3)=C(O)C(=O)N2CCN2CCOCC2)c1OC (stereo unspecified)	inactive
Cc1cnn(-c2cc(N/N=C/c3ccccc3Cl)ncn2)c1	inactive
C/C(=C/Cc1c(O)cc2oc(C)cc(=O)c2c1O)COC1OC(CO)C(O)C(O)C1O (stereo unspecified)	inactive
O=C(CNC(c1ccccc1)c1ccccc1)Nc1ccccc1-c1ccccc1	active: 11.7 µM
O=C(c1ccco1)N1CCN(C(=O)c2ccc(-c3cccc(C(F)(F)F)c3)o2)CC1	inconclusive [inhibitor, single point]
O=C(COc1ccccc1-c1ccccc1)N/N=C/c1ccncc1	inconclusive [inhibitor, full curve, poor fit]
COc1ccc(C(=O)C2CN(C)CC2c2ccc(Cl)cc2)cc1 (stereo unspecified)	inactive
COCCn1nnnc1C(c1cc2ccc(OC)cc2[nH]c1=O)N1CCc2ccccc2C1 (stereo unspecified)	inconclusive [inhibitor, single point]
O=C(CSc1nc2ccc(Cl)cc2[nH]1)c1c[nH]c2ccccc12	inactive
CCOc1ccc(OCC)c(S(=O)(=O)N2CCCCC2)c1	inconclusive [inhibitor, single point]
COc1ccccc1NC(=O)N(Cc1ccccc1)c1ccccn1	active: 11.7 µM
Cc1csc(NC(=O)Cc2ccccc2[N+](=O)[O-])n1	inactive
Cc1cc(C)c(S(=O)(=O)N2CCCC(C(=O)NC3CC3)C2)c(C)c1 (stereo unspecified)	inactive
CCOC(=O)N1CCN(C(=S)NC(=O)C23CC4CC(CC(C4)C2)C3)CC1	inconclusive [inhibitor, partial curve, poor fit]
COc1ccc(NC(=O)CSc2nnc(Cc3cccn3C)n2-c2ccc(C)cc2)cc1OC	inconclusive [inhibitor, partial curve, poor fit]
Cc1nc2ccccc2c(=O)n1NC(=O)c1ccc([N+](=O)[O-])cc1	inactive
O=C(O)c1cc2ccccc2c2cc(Br)ccc12	inconclusive [inhibitor, single point]
Cc1cc(C)n(-c2nc3ccccc3c(=O)n2OCc2ccc(Cl)cc2)n1	inconclusive [inhibitor, partial curve, poor fit]
COc1ccc(O)c(CN2CCCC(N3CCc4ccccc4C3)C2)c1 (stereo unspecified)	active: 11.7 µM

Compound	Potency
COCCN1Cc2cccc(C(=O)NCC3CCN(CC(C)C)C3)c2C1=O (stereo unspecified)	inconclusive [inhibitor, single point]
Cc1ccc(C)c(SCC(=O)NNC(=O)c2csc(N3CCOCC3)n2)c1	inactive
COc1ccccc1OCCNC(=O)CN1C(=O)NC2(CCCC2)C1=O	inconclusive [inhibitor, partial curve, poor fit]
COc1ccc(C(=O)/C(=C\c2ccco2)N2C=CC=CC2=C(C#N)C#N)cc1	inconclusive [inhibitor, partial curve]
O=C(CCn1nc(-c2ccc(Cl)cc2)ccc1=O)NCCCN1CCCCCC1	inconclusive [inhibitor, single point]
CCn1c(/N=C/c2ccccc2O)nc2ccccc21	inactive
CCC(C)NC(=O)CCn1ccc2cc(S(=O)(=O)N3CCCC3)ccc21 (stereo unspecified)	inconclusive [inhibitor, partial curve, poor fit]
CCCCNC(=O)c1cn(CC)c2cc(N3CCN(C(=O)c4ccco4)CC3)c(F)cc2c1=O	inconclusive [inhibitor, full curve]
COc1cc(C2Nc3ccccc3NC3=C2C(=O)CC(C)(C)C3)cc(OC)c1OC (stereo unspecified)	inconclusive [inhibitor, single point]
O=C(NCc1ccc(F)cc1)C1CCCN(c2cnccn2)C1 (stereo unspecified)	inactive
CC(C)NC(=O)[C@]1(C)CCC[C@@]2(C)C3CC[C@@]4(C)C[C@]3(CCC21)CC4=O (stereo partly specified)	inactive
Cc1nn(-c2ccccc2)c(Cl)c1C(=O)NCCCCNC(=O)c1c(C)nn(-c2ccccc2)c1Cl	active: 13.1 µM
Cc1csc(=Nc2ccccc2)n1CCCN1CCCC1=O	inconclusive [inhibitor, single point]
CCC(C)N1CCC(Oc2ccc(C(=O)NCc3ccccn3)cc2)CC1 (stereo unspecified)	inactive
CC(NC(=O)C(=O)N1CCOCC1)C(c1cccs1)N1CCN(c2ccc(F)cc2)CC1 (stereo unspecified)	inconclusive [inhibitor, single point]
O=c1cc(CN2CCCCCC2)nc2sccn12	inactive
O=C(NCC1CCCN(Cc2cccc(F)c2)C1)c1cccc2ccccc12 (stereo unspecified)	inactive
O=C(NCc1ccccn1)C1CCCN(Cc2cnn(-c3ccccc3)c2-n2cccc2)C1 (stereo unspecified)	inconclusive [inhibitor, partial curve, poor fit]
Cn1cccc1/C=C1\SC(=O)N(CC(=O)Nc2ccc(F)cc2)C1=O	inconclusive [inhibitor, single point]
Cc1ccn2c(Nc3ccccc3C)c(-c3ccncc3)nc2c1	inconclusive [inhibitor, single point]
Nc1nc(COc2ccc3ccccc3c2)cs1	inactive
CN1CCN(c2c(F)cc3c(=O)c(C(=O)O)cn4c3c2OCN4C)CC1	inactive
C=CCn1c(SCC(=O)Nc2ccc(OC)cc2)nnc1-c1cnccn1	inactive
Cc1c2cnn(CC(=O)N3CCC4(CC3)OCCO4)c(=O)c2c(C)n1Cc1ccccc1Cl	inactive

Compound	Potency
Cc1nc2ccc(NC(=O)c3ccc(Cl)nc3)cc2s1	inactive
O=C1OCCC1Sc1nnnn1-c1ccc(Cl)cc1 (stereo unspecified)	inactive
C(#CCN1CCCC1)CC(c1ccccc1)c1ccccc1	inconclusive [inhibitor, single point]
CCOc1ccc(CNC(=O)CCC(=O)N2Cc3ccccc3Oc3ncccc32)cc1	inconclusive [inhibitor, single point]
CC1(C)Cc2nc(Cl)c(C#N)cc2CO1	inactive
CCOc1ccc(NC(=O)C2CCN(S(C)(=O)=O)CC2)cc1	inactive
CCCCNC(=O)CCCCCNS(=O)(=O)c1ccc(Br)cc1	inconclusive [inhibitor, partial curve, poor fit]
Cc1sc2nc(CN3CCOCC3)nc(NS(=O)(=O)c3cc(Cl)ccc3Cl)c2c1C	inconclusive [inhibitor, single point]
CN1CCN(c2ccc(NC(=O)c3cccc(S(=O)(=O)N4CCCC4)c3)cc2)CC1	inactive
Cc1ccc(S(=O)(=O)CCC(=O)Nc2nc(-c3ccncc3)cs2)cc1	inconclusive [inhibitor, partial curve, poor fit]
COc1ccc(OCc2nnc(SC(C)C(=O)Nc3nccs3)n2-c2ccccc2)cc1 (stereo unspecified)	inconclusive [inhibitor, partial curve]
CNc1cc(N2CCCCCC2)ccc1[N+](=O)[O-]	inactive
COC(=O)C1=C(C)NC(=O)NC1c1ccc(N2CCC(c3ccccc3)=N2)cc1 (stereo unspecified)	inconclusive [inhibitor, single point]
Cc1ccc(NC(=O)CCCCCN2C(=O)[C@@H]3Cc4ccccc4CN3C2=O)c(C)c1	inconclusive [inhibitor, single point]
N#Cc1ccc(/C=N/NC(=S)Nc2ccc(S(=O)(=O)N3CCOCC3)cc2)cc1	inconclusive [inhibitor, single point]
COc1ccc(C(C)=O)cc1COC(=O)CCC(=O)N(CC(C)C)c1c(N)n(CC(C)C)c(=O)[nH]c1=O	inconclusive [inhibitor, partial curve]
COc1ccc(NS(=O)(=O)c2ccc(C)c(C(=O)NNC(=O)c3csc(N4CCOCC4)n3)c2)cc1	inconclusive [inhibitor, single point]
COc1ccc(NC(=O)C2CCCN(C(=O)c3ccc(Cl)cc3)C2)cc1S(=O)(=O)N(C)C (stereo unspecified)	inconclusive [inhibitor, single point]
O=C(Nc1cccc(O)c1)c1cccc(S(=O)(=O)Nc2cccc(O)c2)c1	inactive
OCC1(CC2CCCCO2)CCN(C/C=C/c2ccccc2)CC1 (stereo unspecified)	active: 5.22 µM
Cc1cc(NC(=O)CCC(=O)N(c2ccccc2)C(C(=O)NC2CCCC2)c2ccncc2)no1 (stereo unspecified)	inactive
CCC(=O)Nc1cccc(C2=NOC3(C2)C[C@@H](C(N)=O)N(C(=O)CC(c2ccccc2)c2ccccc2)C3)c1 (stereo partly specified)	inconclusive [inhibitor, single point]
CC(NC(=O)C(NC(=O)C(Cc1c[nH]c2ccccc12)NC(=O)OC(C)(C)C)C(C)C)C(N)=O (stereo not drawn) (Boc-Trp-Val-Ala-NH2; configuration not given here)	inconclusive [inhibitor, full curve, poor fit]
